The antibiotic and cytotoxicity screens of Wong et al. (2023)
The list shows a part of the results.

How the values were obtained:
HSkMC = human skeletal muscle cells; experiment: cytotoxicity call (relative viability < 0.9); details: 10 µM
S. aureus RN4220 = experiment: growth inhibition call (relative growth <= 0.2); details: 50 µM

| Compound | cytotoxicity call (HSkMC) | growth inhibition call (S. aureus RN4220) |
| --- | --- | --- |
| C[C@@H]1O[C@@H](Oc2c(-c3cc(O)c(O)c(O)c3)oc3cc(O)cc(O)c3c2=O)[C@H](O)[C@H](O)[C@H]1O | inactive | inactive |
| COc1ccc(CN(C)C[C@@H]2Oc3ccc(NS(=O)(=O)c4cn(C)cn4)cc3C(=O)N([C@H](C)CO)C[C@@H]2C)cc1 | inactive | inactive |
| CCN[C@H]1CCS(=O)(=O)C1 | inactive | inactive |
| O=C1O[C@@H](c2ccccc2)[C@@H](c2ccccc2)N2[C@@H](c3ccccc3OCCO)[C@]3(C(=O)Nc4ccc(C#CC5=CCCCC5)cc43)[C@@H](C(=O)O)[C@H]12 | inactive | inactive |
| O=C1O[C@H](c2ccccc2)[C@H](c2ccccc2)N2[C@H]1[C@@H](C(=O)O)[C@]1(C(=O)Nc3ccc(C#CC4(O)CCCCCC4)cc31)[C@H]2c1ccccc1OCCO | inactive | inactive |
| C[C@@H]1CN([C@H](C)CO)C(=O)c2cccc(NS(=O)(=O)c3cn(C)cn3)c2O[C@@H]1CN(C)C(=O)Nc1ccc2c(c1)OCO2 | inactive | inactive |
| COc1ccc(NC(=O)Nc2ccc3c(c2)C(=O)N([C@H](C)CO)C[C@@H](C)[C@@H](CN(C)Cc2ccc(Oc4ccccc4)cc2)O3)cc1 | inactive | inactive |
| C[C@H]1CN([C@@H](C)CO)C(=O)c2cccc(NC(=O)C3CCCCC3)c2O[C@@H]1CN(C)Cc1ccc(C(=O)Nc2ccccc2N)cc1 | inactive | inactive |
| CC(C)NC(=O)Nc1ccc2c(c1)CC(=O)N([C@@H](C)CO)C[C@@H](C)[C@H](CN(C)S(=O)(=O)c1cn(C)cn1)O2 | inactive | inactive |
| COCC(=O)N1C[C@H](C)[C@@H](OC)CN(C)C(=O)c2cc(NC(=O)Nc3ccccc3)ccc2OC[C@H]1C | inactive | inactive |
| COc1ccc2c3c([nH]c2c1)[C@@H](CO)N(C[C@]13CN(C1)S(=O)(=O)c1cn(cn1)C)C(=O)Nc1ccc(cc1)F | inactive | inactive |
| C[C@@H]1CN([C@@H](C)CO)C(=O)c2cc(NS(=O)(=O)c3cccs3)ccc2O[C@@H]1CN(C)C(=O)Nc1cccc2ccccc12 | inactive | inactive |
| CCS(=O)(=O)N1CC[C@]2(CC1)CN([C@@H](CO)c1c2c2ccc(cc2n1C)OC)S(=O)(=O)c1ccccc1 | inactive | inactive |
| C[C@@H]1CN([C@@H](C)CO)C(=O)Cc2cc(NS(=O)(=O)c3cccs3)ccc2O[C@H]1CN(C)S(=O)(=O)c1ccc(F)cc1 | inactive | inactive |
| C[C@H](CO)N1C[C@H](C)[C@@H](CN(C)C(=O)c2ccccn2)Oc2cc(C#Cc3ccccc3)ccc2S1(=O)=O | inactive | inactive |
| C[C@H]1CN([C@@H](C)CO)C(=O)CCCn2cc(nn2)CO[C@@H]1CN(C)C(=O)Nc1cccc2ccccc12 | inactive | inactive |
| CN1C(=O)c2cc(NC(=O)C3CCOCC3)ccc2OC[C@@H]2O[C@@H](CC(=O)NCCc3ccncc3)CC[C@@H]21 | inactive | inactive |
| COc1ccccc1S(=O)(=O)N(C)C[C@H]1OCc2cnnn2CCCC(=O)N([C@@H](C)CO)C[C@@H]1C | inactive | inactive |
| C[C@@H]1CN([C@@H](C)CO)C(=O)c2cc(NC(=O)C3CCCCC3)ccc2O[C@H]1CN(C)C(=O)Nc1cccc2ccccc12 | inactive | inactive |
| C[C@H](CCC(=O)NCCS(=O)(=O)O)[C@H]1CC[C@H]2[C@@H]3[C@H](O)C[C@@H]4C[C@H](O)CC[C@]4(C)[C@H]3C[C@H](O)[C@]12C | inactive | inactive |
| COc1cccc(NC(=O)N[C@@H]2C=C[C@H](CC(=O)N3CCN(C)CC3)O[C@H]2CO)c1 | inactive | inactive |
| COc1ccc(NC(=O)Nc2ccc3c(c2)C(=O)N([C@H](C)CO)C[C@H](C)[C@H](CN(C)Cc2ccncc2)OCCCC[C@@H](C)O3)cc1 | inactive | inactive |
| C[C@@H]1CN([C@H](C)CO)C(=O)c2cc(NS(=O)(=O)c3cccs3)ccc2O[C@@H](C)CCCCO[C@H]1CN(C)Cc1ccc2c(c1)OCO2 | inactive | inactive |
| C[C@@H]1CCCCO[C@H](CN(C)Cc2ccccc2)[C@@H](C)CN([C@H](C)CO)C(=O)c2cc(NC(=O)c3ccncc3)ccc2O1 | inactive | inactive |
| C[C@H]1CN([C@@H](C)CO)S(=O)(=O)c2ccc(C#CCN(C)C)cc2O[C@@H]1CN(C)Cc1ccc2c(c1)OCO2 | inactive | inactive |
| C[C@@H]1CN([C@@H](C)CO)C(=O)c2cccc(NC(=O)Nc3ccc(C(F)(F)F)cc3)c2O[C@H]1CN(C)C(=O)Nc1ccc2c(c1)OCO2 | inactive | inactive |

| Compound | cytotoxicity call (HSkMC) | growth inhibition call (S. aureus RN4220) |
| --- | --- | --- |
| Cc1cccc(C)c1OC[C@@H](C)N | inactive | inactive |
| COC(=O)[C@@H]1N2C(=O)[C@@H](N3CC4=C[C@@H](C5CC5)n5c(=O)n(C)c(=O)n5[C@@H]4[C@@H]3[C@@H](O)Cc3ccccc3)[C@H]2SC1(C)C | inactive | inactive |
| C[C@H]1CN([C@@H](C)CO)C(=O)c2cc(C#Cc3ccccc3F)cnc2O[C@@H]1CN(C)C(=O)c1ccc2c(c1)OCO2 | inactive | inactive |
| C[C@@H]1CN([C@H](C)CO)C(=O)Cc2cc(NC(=O)Nc3ccc(C(F)(F)F)cc3)ccc2O[C@H]1CN(C)Cc1ccc(C(F)(F)F)cc1 | active | inactive |
| CCCNC(=O)Cn1c(=O)n(C)c2ccccc21 | inactive | inactive |
| C[C@@H]1CN([C@H](C)CO)C(=O)c2cc(NC(=O)CCCCCC(=O)Nc3ccccc3N)ccc2O[C@H]1CN(C)Cc1ccccc1 | inactive | inactive |
| C[C@@H]1CN([C@@H](C)CO)S(=O)(=O)c2ccc(Br)cc2O[C@H]1CN(C)Cc1ccccc1F | inactive | inactive |
| C[C@@H]1CN([C@@H](C)CO)C(=O)c2cc(NC(=O)Nc3ccccc3)ccc2O[C@@H](C)CCCCO[C@H]1CN(C)Cc1ccc(C(F)(F)F)cc1 | active | inactive |
| C[C@H]1CCCCO[C@@H](CN(C)C(=O)Nc2cccc3ccccc23)[C@@H](C)CN([C@@H](C)CO)C(=O)c2cc(NS(=O)(=O)c3ccc(Cl)cc3)ccc2O1 | inactive | inactive |
| C[C@@H]1CCCCO[C@@H](CN(C)Cc2ccc(Cl)c(Cl)c2)[C@@H](C)CN([C@H](C)CO)C(=O)c2cc(NS(C)(=O)=O)ccc2O1 | inactive | inactive |
| COc1ccc([Si](C)(C)[C@@H]2[C@@H](CC(=O)N3Cc4ccccc4C[C@H]3CO)O[C@]3(C(=O)N(Cc4ccc(I)cc4)c4ccccc43)[C@H]2C)cc1 | inactive | inactive |
| CNC(=O)CN1CCO[C@H]2CN(C(=O)C(C)C)C[C@@H]21 | inactive | inactive |
| COCCOC(=O)N1C(=O)[C@@]2(c3cc(C#Cc4ccc(OC)cc4)ccc31)[C@H](C(=O)N1CCCCCCC1)[C@H]1C(=O)O[C@H](c3ccccc3)[C@H](c3ccccc3)N1[C@@H]2c1ccc(O)cc1 | inactive | inactive |
| C[C@H]1O[C@@H](OC(=O)[C@]23CCC(C)(C)C[C@H]2C2=CC[C@H]4[C@@]5(C)CC[C@H](O[C@@H]6O[C@H](C(=O)O)[C@@H](O)[C@H](O[C@@H]7OC[C@@H](O)[C@H](O)[C@H]7O)[C@H]6O[C@@H]6O[C@H](CO)[C@H](O)[C@H](O)[C@H]6O)[C@@](C)(C=O)[C@@H]5CC[C@@]4(C)[C@]2(C)C[C@H]3O)[C@H](O[C@H]2O[C@@H](CO)[C@@H](O)[C@@H](O)[C@@H]2O)[C@@H](O)[C@H]1O[C@@H]1O[C@H](C)[C@@H](O[C@H]2OC[C@@H](O)[C@@H](O)[C@@H]2O)[C@H](O)[C@@H]1O | inactive | inactive |
| Cc1noc(C)c1S(=O)(=O)N(C)C[C@H]1OCCCC[C@@H](C)Oc2ccc(NS(C)(=O)=O)cc2C(=O)N([C@H](C)CO)C[C@@H]1C | inactive | inactive |
| C[C@H]1CN([C@@H](C)CO)C(=O)c2cc(NS(=O)(=O)c3ccc(F)cc3)ccc2O[C@H]1CN(C)Cc1ccc(-c2ccccc2)cc1 | inactive | inactive |
| C[C@@H]1CN([C@@H](C)CO)C(=O)c2cc(NC(=O)Nc3cccc4ccccc34)ccc2O[C@@H](C)CCCCO[C@@H]1CN(C)Cc1ccncc1 | inactive | inactive |
| C[C@H](CO)N1C[C@H](C)[C@H](CN(C)S(=O)(=O)c2cccs2)OCCCC[C@H](C)Oc2ccc(NS(=O)(=O)c3cn(C)cn3)cc2C1=O | inactive | inactive |
| Cc1ccc(S(=O)(=O)N(C)C[C@H]2Oc3c(NC(=O)c4cnccn4)cccc3C(=O)N([C@@H](C)CO)C[C@@H]2C)cc1 | inactive | inactive |
| C[C@H]1CN([C@@H](C)CO)C(=O)c2cccc(NS(=O)(=O)c3ccc(F)cc3)c2O[C@@H]1CN(C)C(=O)Nc1ccc(C(F)(F)F)cc1 | inactive | inactive |
| C[C@@H]1CN([C@H](C)CO)C(=O)c2cc(C#Cc3cccc(F)c3)cnc2O[C@@H]1CN(C)CC1CCOCC1 | inactive | inactive |
| C[C@@H]1CCCCO[C@H](CN(C)C(=O)Nc2ccc(F)cc2)[C@H](C)CN([C@H](C)CO)C(=O)c2cc(NS(=O)(=O)c3ccccc3)ccc2O1 | inactive | inactive |
| COc1ccc(S(=O)(=O)N(C)C[C@@H]2Oc3ccc(NS(=O)(=O)c4ccc(C)cc4)cc3C(=O)N([C@H](C)CO)C[C@H]2C)cc1 | inactive | inactive |
| C[C@@H]1CCCCO[C@@H](CN(C)Cc2ccc(C(F)(F)F)cc2)[C@H](C)CN([C@H](C)CO)C(=O)c2cc(NS(=O)(=O)c3cn(C)cn3)ccc2O1 | inactive | inactive |
| C[C@H](CO)N1C[C@H](C)[C@H](CN(C)C(=O)c2ccc(N3CCN(C)CC3)cc2)OCc2cnnn2CCCC1=O | inactive | inactive |
| CC(=O)OC1(C(C)=O)CCC2C3CC(C)C4=CC(=O)CCC4(C)C3CCC21C (centres undefined) | inactive | inactive |
